Results from the supplement of paper PMC10326071.
“And” between values parts separate entries of the source, which are not always exact repeats. Equal entries are not always repeated. This is one part of the list. Most values come without repeats; read them as rough.

Key:
[1] = system: SARS-CoV-2 nsp3 SARS-unique domain core (SUD-core, nsp3 residues 413-676); assay: dissociation rate constant koff (BLI); higher = faster dissociation; details: 100 µM; 25 °C
[2] = system: SARS-CoV-2 nsp3 SARS-unique domain core (SUD-core, nsp3 residues 413-676); assay: apparent dissociation constant Kd (single-concentration BLI fit); higher = weaker binding; details: 100 µM; 25 °C

SMILES	dissociation rate constant koff [1] [s⁻¹]	apparent dissociation constant Kd [2]
Cc1cc(Nc2ncc(F)c(N[C@H]3[C@@H](C(N)=O)[C@@H]4C=C[C@H]3C4)n2)ccc1N1CCN(C)CC1	0.703	1830 µM
C=CC(=O)Nc1cccc(-c2cccc3cnc(Nc4ccc(N5CCN(CCO)CC5)c(F)c4F)nc23)c1	0.0927	6860 µM
OC[C@H]1O[C@@H](n2cnc3c(NC4CCCC4)ncnc32)[C@H](O)[C@@H]1O	0.256	816 µM
NC1(Cc2ccc(Cl)cc2)CCN(c2ncnc3[nH]ccc23)CC1	0.755	1070 µM
CC(C)=CCC/C(C)=C/CC/C(C)=C/C=C/C(C)=C/C(=O)O	0.0437	178 µM
CC(C)(O)CNc1ncc(-c2ccnc(Nc3ccnc(Cl)c3)n2)c(CC2CC2)n1	0.46	2770 µM
COCCNCc1ccc(-c2cc3nccc(Oc4ccc(NC(=S)NC(=O)Cc5ccc(F)cc5)cc4F)c3s2)nc1	0.0362	141 µM
Cc1ccc(NC(=O)c2ccc(CN3CCN(C)CC3)cc2)cc1Nc1nc(-c2cccnc2)cs1	0.105	9250 µM
O=c1[nH]c(=O)n([C@@H]2O[C@H](CO)[C@@H](O)[C@H]2O)cc1F	0.00924	45 µM
COc1ccc(-c2c(-c3ccc(O)cc3O)n[nH]c2C)cc1	0.573	829 µM
COc1ccc2c(c[n+](C)c3c4cc5c(cc4ccc23)OCO5)c1OC	0.0721	2680 µM
O=C(Nc1cn[nH]c1-c1nc2ccc(CN3CCOCC3)cc2[nH]1)NC1CC1	0.181	77.3 µM
CCCCCCCCCCCCCCCCCCOP(=O)([O-])OC1CC[N+](C)(C)CC1	0.00101	2.88 µM
C=CC(=O)Nc1cccc(-n2c(=O)cc(C)c3cnc(Nc4ccc(OCCN(C)C)cc4OC)nc32)c1	0.0208	16.9 µM
C=CC(=O)N(C)CCOc1c(N)ncnc1-c1cc(F)cc(NC(=O)c2ccc(C3CC3)cc2F)c1C	0.815	1540 µM
NC(=O)C1=CN([C@@H]2O[C@H](COP(=O)(O)OP(=O)(O)OC[C@H]3O[C@@H](n4cnc5c(N)ncnc54)[C@H](OP(=O)(O)O)[C@@H]3O)[C@@H](O)[C@H]2O)C=CC1.NC1CCCCC1.NC1CCCCC1.NC1CCCCC1.NC1CCCCC1	0.0139	61.5 µM
Cn1c(=O)c2c(nc(S(C)(=O)=O)n2C)n(CC#Cc2cccc(O)c2)c1=O	0.337	1670 µM
Nc1ncn([C@@H]2O[C@H](CO)[C@@H](O)[C@H]2O)c(=O)n1	0.0634	7530 µM
C[C@H](NC(=O)[C@H]1NCC[C@@H]1O)c1ccc(-c2noc(CCC3CCCC3)n2)cc1	0.532	260 µM
CNc1ccc(-c2nc(N3CCOCC3)c3sc(CN(C)c4ncc(C(=O)NO)cn4)cc3n2)cn1	0.039	174 µM
COc1ccc(Br)c(C=O)c1O	16.3	60.1 µM
COc1cc(Nc2ncc(F)c(Nc3ccc4c(n3)N(COP(=O)(O)O)C(=O)C(C)(C)O4)n2)cc(OC)c1OC		1840 µM and 1670 µM
Nc1ncc(-c2ccc(C(=O)N3CCNCC3)cc2)nc1-c1ccc(C(F)(F)F)cc1	0.461	1830 µM
C=C(C)[C@H](C)c1cc(/C=C/C(=O)c2ccc(O)cc2)c(OC)cc1O	0.067	10100 µM
CC(C)=CCC[C@](C)(O[C@@H]1O[C@H](CO[C@@H]2O[C@H](CO)[C@@H](O)[C@H](O)[C@H]2O)[C@@H](O)[C@H](O)[C@H]1O)[C@H]1CC[C@]2(C)[C@@H]1[C@H](O)C[C@@H]1[C@@]3(C)CC[C@H](O[C@@H]4O[C@H](CO)[C@@H](O)[C@H](O)[C@H]4O[C@@H]4O[C@H](CO)[C@@H](O)[C@H](O)[C@H]4O)C(C)(C)[C@@H]3CC[C@]12C	0.254	3250 µM
C[C@H]1CN(C2COC2)CCN1c1ccc(Nc2cc(-c3ccnc(N4CCn5c(cc6c5CC(C)(C)C6)C4=O)c3CO)cn(C)c2=O)nc1	0.051	3390 µM
CS(=O)(=O)N1CCN(Cc2cc3nc(-c4cccc5[nH]ncc45)nc(N4CCOCC4)c3s2)CC1	0.134	603 µM
Nc1nc(F)nc2c1ncn2[C@@H]1O[C@H](COP(=O)(O)O)[C@@H](O)[C@@H]1O	0.0222	187 µM
CNC(=O)c1cc(Oc2ccc(NC(=O)Nc3ccc(Cl)c(C(F)(F)F)c3)cc2)ccn1	0.0296	128 µM
COc1ccc(C(OC[C@H]2O[C@@H](n3cnc4c(NC(=O)c5ccccc5)ncnc43)[C@H](O)[C@@H]2O[Si](C)(C)C(C)(C)C)(c2ccccc2)c2ccc(OC)cc2)cc1	0.19	174 µM
